# Source: the supplement of paper PMC12217912
# The other results are listed elsewhere or left out. Sequences were assembled here from the parent chain. Values near 0.05 are background.
# B1: TEV protease; numbered along this chain (parent)
# chain: MGESLFKGPRDYNPISSSICHLTNESDGHTTSLYGIGFGPFIITNKHLFRRNNGTLVVQSLHGVFKVKDTTTLQQHLVDGRDMIIIRMPKDFPPFPQKLKFREPQREERICLVTTNFQTKSMSSMVSDTSCTFPSGDGIFWKHWIQTKDGQCGSPLVSTRDGFIVGIHSASNFTNTNNYFTSVPKNFMELLTNQEAQQWVSGWRLNADSVLWGGHKVFMVKPEEPFQPVKEATQL
# Variants of: B1
# Assay: raw area under fraction-flipped curve 0-4 h after induction (AUC4h, not background-subtracted), DNA-recorder readout of cleavage of the substrate (dimensionless); higher = more cleavage of the substrate by the protease variant
# Settings: temperature: 34 °C; time window: 0-4 h after rhamnose induction
# Method: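 In vivo DNA recorder in E. coli TOP10(DE3) ΔrhaA at 34 °C. Each TEVp single-site mutant (parent TEVp 0) is paired with a single-site variant of the 7-mer TEVs (canonical ENLYFQ|S). The substrate sits between flexible linkers in a Bxb1-sfGFP-TEVs-SsrA fusion, so cleavage stabilises Bxb1 and speeds flipping of a recombination array, read by NGS. The value is the raw area under the fraction-flipped curve over 0-4 h after rhamnose induction (AUC4h), with ≥20 reads per time point. It is not background-subtracted; inactive controls average about 0.047.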
# 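Further: Bxb1 expression induced with 0.2% (w/v) L-rhamnose at OD600 near 0.5, cultures sampled hourly, flipped fraction per protease–substrate barcode pair counted by paired-end Illumina sequencing.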
Variant,area with substrate ANLYFQS,area with substrate CNLYFQS,area with substrate DNLYFQS,area with substrate GNLYFQS,area with substrate HNLYFQS,area with substrate INLYFQS,area with substrate LNLYFQS,area with substrate MNLYFQS,area with substrate NNLYFQS,area with substrate PNLYFQS,area with substrate RNLYFQS,area with substrate SNLYFQS,area with substrate TNLYFQS,area with substrate WNLYFQS,area with substrate YNLYFQS,area with substrate FNLYFQS,area with substrate KNLYFQS,area with substrate VNLYFQS,area with substrate QNLYFQS
M122E,0.0827,0.0683,0.115,0.062,0.0697,0.0682,0.0599,0.0895,0.0728,0.0587,0.0765,0.0824,0.0536,0.0798,0.0726,,,,
M122Q,0.0512,0.0704,0.0938,0.0688,0.0667,0.0604,,,0.0616,0.0734,,0.0479,0.0671,0.0389,0.0607,0.0649,0.0758,0.069,
H143P,0.0496,0.0483,0.0523,,0.0495,0.0539,0.0604,0.059,0.0515,0.0505,,0.061,0.0507,0.0486,0.0574,,0.0597,,
H143R,0.0601,0.0524,0.0719,,0.0459,,0.0746,0.0493,,,0.0755,,0.0601,,,,,,0.0568
H143C,0.0674,0.0617,0.0664,0.0737,0.0681,0.0607,,,,0.0588,0.0655,,0.0574,0.0677,,,0.0598,,0.06
H143A,0.0741,0.067,0.0759,0.0567,0.0608,0.0664,0.0726,0.0667,0.0667,0.0659,0.0827,0.0596,0.07,0.0487,0.0611,0.131,0.0623,0.0625,0.0644
T132V,0.0561,0.0662,0.0862,0.0745,0.0432,0.0615,,0.0596,0.068,0.0747,,0.0752,0.0661,0.057,0.0678,0.0838,0.0565,,
T114F,0.0512,0.0679,0.0691,0.0655,0.0638,,0.0804,,0.0612,0.0675,,,0.0742,,0.0444,,0.0601,0.0374,
Q146R,0.0659,0.0851,0.0639,,0.0571,0.072,0.0653,,0.0741,0.0746,,0.0718,0.0599,0.0525,0.0683,0.0616,0.0734,0.0743,0.0642
S135A,0.0702,0.0551,0.0709,0.0522,0.0584,0.0628,0.0583,0.0584,0.0678,0.0736,,0.0447,0.0636,0.0535,0.0802,0.0723,0.0544,0.0702,0.0491
D137N,0.076,0.0586,0.0822,0.0589,0.0617,0.0543,0.0615,0.0659,0.077,0.0653,,0.0647,0.0675,0.0603,0.0643,0.049,0.0703,,0.0792
D137R,0.0774,0.0445,0.0892,0.0553,0.0461,,,0.0636,,,0.0623,,0.123,0.0608,0.0674,0.0588,0.0784,0.066,
D137L,0.0809,0.0681,0.0719,,0.0644,0.0674,,0.0743,0.0613,0.0716,0.064,,,0.0593,0.0468,,0.0733,0.0458,
S123K,0.0685,0.0772,0.0883,0.0726,0.0625,0.0806,0.0726,0.0714,,,,0.0667,,0.0505,0.0479,0.0618,,,
S123M,0.0524,0.0702,0.0195,0.0614,0.0608,0.0587,0.0752,,,0.0636,0.062,,0.0553,0.0562,,0.0647,0.0862,,
S123A,0.0428,0.0794,0.0635,,0.0633,,0.0704,,,0.0694,,0.0752,,0.0629,0.0669,,,,
M125T,0.123,0.0689,0.072,0.0733,0.068,0.0679,0.0675,,0.0705,0.0749,,0.0681,0.0703,0.06,0.0584,0.0685,0.0599,0.0742,
M125V,0.0739,0.0691,0.0758,,0.0696,,0.0838,,0.0663,0.0779,0.0646,0.0712,,0.0856,0.075,0.0625,0.0885,,0.0776
M125N,0.0526,0.0699,0.0827,0.0797,0.0654,0.0406,0.052,0.074,0.0642,0.0619,0.0539,0.0592,0.0618,0.0643,0.0443,0.0673,0.0703,,
W141M,0.0667,0.0637,0.0691,0.0478,0.0283,0.0503,0.0518,,0.0321,0.0522,0.0334,,0.0604,0.0482,0.042,0.0552,0.0633,0.0737,
I139A,0.052,0.0729,0.06,0.0633,,,0.0683,,0.0488,0.0645,0.074,0.0567,0.0604,0.0698,0.0535,0.0627,0.0813,,
I139S,0.0966,0.0692,0.108,,0.0657,,0.0546,,0.0607,0.0845,,0.0648,0.0733,0.0585,0.0659,0.075,0.0748,,0.064
I139G,0.0568,0.0685,0.0939,,0.0626,,,,,0.0504,0.067,0.0615,0.0591,0.0596,,0.0616,0.0659,0.054,0.0599
F140C,0.0619,0.0689,0.0711,0.0436,0.0589,0.0625,0.0666,0.0642,0.0543,0.0591,0.0583,0.072,0.0541,0.0597,0.0639,,0.0576,0.0638,0.0445
F140K,0.0496,0.0548,0.0663,,,,0.064,,0.0627,0.0677,,0.0717,0.0653,,,,,0.0897,
